From PubChem BioAssay AID889 (National Center for Advancing Translational Sciences (NCATS), 2007)
The whole screen tested about 75,000 compounds, of which about 15 (0.02%) were called active. Inconclusive means that the source gave no clear call. Such entries were picked first, then a sample of the others. The call rests on the fitted dose curve; in most records, active means well fitted inhibition curve with a large enough effect in the main read-out, with a control signal flat (not every such curve was filed as active); inconclusive means small, poorly fitted or top-dose-only effect, or a change in a side signal; inactive means flat fitted curve, though single readings scatter. Where the call is inconclusive, the potency comes from a doubtful curve fit. A note “side channel” means that the fit belongs to a control or component signal, not to the main read-out.

Biological target: Caspase-7 (Homo sapiens) (UniProt P55210)
Assay: qHTS Assay for Allosteric/Competitive Inhibitors of Caspase-7; on activity change, negative = inhibition: % of control where 0% means no effect
Conditions: recombinant caspase-7, Ac-DEVD-AFC fluorescence rate; activity change, negative = inhibition: at 57.5 µM (top of the series) unless noted
Potency means the concentration at half of the fitted maximal effect; tags describe the fitted curve by direction and shape or compound fluorescence and quenching.

Sequence of UniProt P55210 (P55210 whole entry, looked up): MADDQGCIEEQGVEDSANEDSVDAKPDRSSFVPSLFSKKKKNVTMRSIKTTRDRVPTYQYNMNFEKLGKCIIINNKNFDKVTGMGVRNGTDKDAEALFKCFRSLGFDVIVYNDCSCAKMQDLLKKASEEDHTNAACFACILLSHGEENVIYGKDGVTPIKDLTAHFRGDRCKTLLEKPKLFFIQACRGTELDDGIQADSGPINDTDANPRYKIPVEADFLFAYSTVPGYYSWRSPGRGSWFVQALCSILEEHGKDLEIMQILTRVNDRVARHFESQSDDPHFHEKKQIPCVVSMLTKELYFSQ

Potency, inconclusive:
COc1ccc(CCn2c(=N)c(C(=O)N3CCN(C)CC3)cc3c(=O)n4ccccc4nc32)cc1 15.8 µM [inhibitor, partial curve]
Cc1cc(=O)oc2c(CN3CCOCC3)c(O)ccc12 15.8 µM [fluorescent, partial curve]
CCc1cc2c(=O)c(Oc3ccccc3F)c(C)oc2c(CN(C)C)c1O 25.1 µM [inhibitor, single point]
CCn1c(=N)c(C(=O)OC)cc2c(=O)n3ccccc3nc21 3.98 µM [fluorescent, side channel, partial curve]
O=C(c1ccccc1)c1ccc2nc(N3CCCCC3)c3nncn3c2c1 31.6 µM [inhibitor, single point]
CNC1=C(Br)C(=O)c2ccncc2C1=O 3.16 µM [inhibitor, partial curve]
CN(C)c1ccc(-c2cc(-n3ccnc3)ncn2)cc1 25.1 µM [inhibitor, single point]
CCCn1c(NCc2cc(OC)ccc2OC)nc2ccccc21 25.1 µM [fluorescent, side channel, partial curve]
CCOc1ccc(C2C=C(c3ccccc3)Nc3nnnn32)cc1 (stereo unspecified) 31.6 µM [fluorescent, single point]
Cc1ccc2nc3c(cc(C#N)c(=O)n3CCN3CCOCC3)c(=O)n2c1 15.8 µM [fluorescent, partial curve]
Cc1c(Cc2ccccc2)c(=O)oc2c(CN(C)C)c(O)c(Cl)cc12 12.6 µM [fluorescent, side channel, partial curve]
Nc1c(C(=O)OCC2CCCO2)c2nc3ccccc3nc2n1-c1ccc2c(c1)OCCO2 (stereo unspecified) 31.6 µM [fluorescent, single point]
Cc1sc2nc3ccc(N4CCCC4)nn3c(=O)c2c1C 15.8 µM [fluorescent, side channel, partial curve]
CC(C)n1c(=N)c(C(=O)NCCc2ccccc2)cc2c(=O)n3ccccc3nc21 3.98 µM [fluorescent, side channel, partial curve]
CC(C)Nc1oc(-c2cccc3ccccc23)nc1C#N 20 µM [fluorescent, side channel, single point]
O=c1[nH]c2cc3c(cc2cc1CN(Cc1cccs1)Cc1nnnn1Cc1ccco1)OCCO3 15.8 µM [fluorescent, side channel, partial curve]
CN(C)c1ncc2nc(-c3ccc(Cl)cc3)c(=O)n(C)c2n1 3.98 µM [fluorescent, partial curve]
CCC(c1nnnn1Cc1ccccc1)N(Cc1ccco1)Cc1cc2cc(OC)ccc2[nH]c1=O (stereo unspecified) 25.1 µM [fluorescent, partial curve]
O=c1c(-c2ccc(Cl)cc2)nc2cnc(Oc3ccccc3)nc2n1C1CC1 25.1 µM [fluorescent, single point]
CCOC(=O)Cc1c(C)c2ccc(N(CC)CC)cc2oc1=O 7.94 µM [fluorescent, side channel, partial curve]
O=c1c(-c2cccs2)nc2cnc(N3CCOCC3)nc2n1Cc1ccc(F)cc1 0.794 µM [fluorescent, side channel, full curve]
CCCCOc1ccccc1C1C(C(=O)OC)=CN(CC)C=C1C(=O)OC 5.01 µM [fluorescent, side channel, partial curve]
CSc1ccc(C2NC(=O)c3c(sc4c3CCN(C)C4)N2)cc1 (stereo unspecified) 12.6 µM [fluorescent, side channel, partial curve]
COc1cccc(Nc2ncc3nc(-c4cc(F)cc(F)c4)c(=O)n(C4CC4)c3n2)c1 2.51 µM [fluorescent, partial curve]
CN(C)c1ncc2nc(-c3ccccc3)c(=O)n(Cc3ccc(F)cc3)c2n1 2.51 µM [fluorescent, side channel, full curve]
CC1=C(C(=O)Nc2cccc(C)n2)C(c2ccc3c(c2)OCO3)C2=C(CC(c3ccco3)CC2=O)N1 (stereo unspecified) 31.6 µM [inhibitor, single point]
Cc1cccc(S(=O)(=O)C(C#N)c2nc3ccccc3nc2N2CCOCC2)c1 (stereo unspecified) 15.8 µM [inhibitor, partial curve]
CCNc1ncc2nc(-c3cccc(C#N)c3)c(=O)n(C)c2n1 2 µM [fluorescent, side channel, full curve]
COc1ccc(Cl)cc1-c1nc(-c2ccc(NC(=O)c3ccncc3)cc2)no1 15.8 µM [fluorescent, partial curve]
CCNc1ncc2nc(-c3ccc(Cl)cc3)c(=O)n(Cc3cccc(OC)c3)c2n1 1.58 µM [fluorescent, side channel, partial curve]
CCNc1ncc2nc(CCc3ccccc3)c(=O)n(CCC#N)c2n1 15.8 µM [fluorescent, partial curve]
COc1cccc(Cn2c(=O)c(-c3cccs3)nc3cnc(N4CCN(C)CC4)nc32)c1 10 µM [fluorescent, side channel, partial curve]
COc1ccc(-n2c(=O)c(-c3cc(F)cc(F)c3)nc3cnc(N(C)C)nc32)cc1 2.51 µM [fluorescent, full curve]
COc1ccc(Oc2ncc3nc(-c4ccccc4)c(=O)n(Cc4cccs4)c3n2)cc1 25.1 µM [fluorescent, partial curve]
CCCCNC(=O)c1ccc2nc(-c3ccco3)c(-c3ccco3)nc2c1 25.1 µM [fluorescent, partial curve]
O=c1cc(O)cc(/C=C\c2ccc(O)c(O)c2)o1 12.6 µM [inhibitor, full curve]
C=CCn1c(=O)c(C#N)cc2c(=O)n3ccccc3nc21 5.01 µM [fluorescent, side channel, partial curve]
Cc1cc2c(c(=O)n1C)C(Cc1ccccc1)C(C#N)=C(N)O2 (stereo unspecified) 15.8 µM [fluorescent, side channel, partial curve]
CNC(=O)c1cc2c(=O)n3cccc(C)c3nc2n(C(C)C)c1=N 5.01 µM [fluorescent, side channel, partial curve]
COc1ccc(Oc2ncc3nc(-c4ccc(Cl)cc4)c(=O)n(C4CC4)c3n2)cc1 25.1 µM [fluorescent, single point]
Cc1nn(C)cc1CN(C)C(=O)c1cc2nc(-c3ccco3)cc(C(F)(F)F)n2n1 31.6 µM [fluorescent, side channel, single point]

Potency, inactive:
CCCCCCNC(=O)Nc1ccc(S(=O)(=O)Nc2ccc(CCNC[C@H](O)COc3ccc(O)cc3)cc2)cc1
COc1cccc(-c2ccc(-c3noc(-c4ccccc4F)n3)c(OC)n2)c1
COc1ccc(NC(=O)N2CCCC3(CCNCC3)C2)cc1
O=C(OCCN(C1=NS(=O)(=O)c2ccccc21)c1ccc(Cl)cc1)c1ccco1
CCc1ccc(S(=O)(=O)Nc2ccc(O)c(C(=O)O)c2)cc1
CCOC(=O)c1sc(NC(=O)c2cccs2)cc1C
COc1ccc2c(c1)N(C[C@@H](C)CN(C)C)c1ccccc1S2
CCS(=O)(=O)N1CCN(C(C)CCc2ccccc2)CC1 (stereo unspecified)
COC(=O)c1c(NC(=O)c2ccc(C)o2)sc2c1CCCCC2
CCOCCCNC(=O)c1ccc2c(c1)ncn2C1CCCC1
CCOc1ccc(-c2nn3c(-c4ccc(F)cc4)nnc3s2)cc1
CCOC(=O)N1CCN(C(=O)Cn2ncc3ccccc32)CC1
COC1OC(CO)C(OC2OC(C(=O)O)C(OC3OC(COS(=O)(=O)O)C(OC4OC(C(=O)O)C(OC5OC(CO)C(OC6OC(C(=O)O)C(OC7OC(COS(=O)(=O)O)C(OC8OC(C(=O)O)=C[C@H](O)C8OS(=O)(=O)O)C(O)C7NC(C)=O)[C@@H](O)C6O)C(O)C5NC(C)=O)[C@@H](O)C4O)C(O)C3NC(C)=O)[C@@H](O)C2O)C(O)C1NC(C)=O (stereo partly specified)
CS(=O)(=O)N1CCC2(CC1)CN(c1ccc(-c3ccccc3)cc1)C2
COc1ccc(OC)c(C(c2nnnn2CCC(C)C)N2CCN(C(=O)c3ccco3)CC2)c1 (stereo unspecified)
CCCOc1ccc(-c2nnc(-c3ccco3)o2)cc1

Activity change, negative = inhibition, inconclusive:
O=S(=O)(c1ccc2c(c1)OCCO2)N(Cc1ccc(F)cc1)Cc1nnc(-c2cccs2)o1 -63.6% [inhibitor] [at 0.00368 µM]

Activity change, negative = inhibition, inactive:
COc1ccc(O[C@H]2C=C[C@@H](c3ccccc3)O[C@H]2CO/N=C2/[C@H]3O[C@@H]3[C@@H](O)[C@H]3[C@H]2CCn2c(=O)n(-c4ccccc4)c(=O)n23)cc1 -1.02% [at 11.5 µM]
C(CCc1nnc2c(n1)CCCC2)Cc1nnc2c(n1)CCCC2 -1.74% [at 11.5 µM]
C=C(C)CC1(c2ccccc2)Oc2ccccc2-c2nc3cc(Cl)c(Cl)cc3nc21 (stereo unspecified) -3.02% [at 11.5 µM]
